# In paper PMC4081100:
# This is a selection; strong and weak results do not stand in their true shares. For part of these data: At the low end of the ranking the order means little. The list shows a part of the results. For part of these data: The exact form of the protein is not confirmed.
# Legend:
# Assay in all cases: universal protein binding microarray (PBM)
# Settings in all cases: transcription factors of Arabidopsis thaliana; high values mean tight binding; most listed sequences are background and not binding sites; double strand, one strand shown
# GST-ANAC092(1-176) = target: T1, GST-ANAC092(1-176) (UniProt Q9FKA0)
# T1 sequence: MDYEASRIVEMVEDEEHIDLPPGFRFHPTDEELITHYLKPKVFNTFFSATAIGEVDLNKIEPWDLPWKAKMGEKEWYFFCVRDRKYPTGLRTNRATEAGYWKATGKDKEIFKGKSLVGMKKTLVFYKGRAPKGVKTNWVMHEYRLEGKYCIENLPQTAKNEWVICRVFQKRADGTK
# GST-NTL6(1-168) = GST-NTL6(1-168) (UniProt Q9SCK6)
# UniProt Q9SCK6, sequence (Q9SCK6 1-168): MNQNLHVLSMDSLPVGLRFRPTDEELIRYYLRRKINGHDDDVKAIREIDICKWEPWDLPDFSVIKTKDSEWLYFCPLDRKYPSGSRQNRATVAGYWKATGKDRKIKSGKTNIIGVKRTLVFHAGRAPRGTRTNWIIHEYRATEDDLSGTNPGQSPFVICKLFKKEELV
# GST-ANAC019 NAC domain = target: T2, GST-ANAC019 NAC domain (UniProt Q9C932)
# T2 sequence: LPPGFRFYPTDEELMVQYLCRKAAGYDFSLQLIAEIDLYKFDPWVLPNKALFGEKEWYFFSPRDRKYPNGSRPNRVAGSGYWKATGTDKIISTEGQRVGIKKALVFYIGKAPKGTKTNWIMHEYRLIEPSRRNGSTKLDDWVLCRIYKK
# GST-ANAC055(1-171) = target: T3, GST-ANAC055(1-171) (UniProt Q9LDY8)
# T3 sequence: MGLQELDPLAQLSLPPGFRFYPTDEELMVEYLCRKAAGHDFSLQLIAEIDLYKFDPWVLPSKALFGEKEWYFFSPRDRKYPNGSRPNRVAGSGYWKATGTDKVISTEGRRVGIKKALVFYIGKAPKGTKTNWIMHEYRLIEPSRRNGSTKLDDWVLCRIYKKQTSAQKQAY
# GST-ATAF1 NAC domain = target: T4, GST-ATAF1 NAC domain (UniProt Q39013)
# T4 sequence: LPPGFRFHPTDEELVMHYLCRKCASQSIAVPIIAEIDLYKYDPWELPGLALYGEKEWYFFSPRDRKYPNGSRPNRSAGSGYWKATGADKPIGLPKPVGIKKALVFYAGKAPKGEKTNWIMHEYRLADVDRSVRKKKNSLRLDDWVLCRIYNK
# [1] = target: T5, GST-ANAC092(1-285) full length (UniProt Q9FKA0)
# T5 sequence: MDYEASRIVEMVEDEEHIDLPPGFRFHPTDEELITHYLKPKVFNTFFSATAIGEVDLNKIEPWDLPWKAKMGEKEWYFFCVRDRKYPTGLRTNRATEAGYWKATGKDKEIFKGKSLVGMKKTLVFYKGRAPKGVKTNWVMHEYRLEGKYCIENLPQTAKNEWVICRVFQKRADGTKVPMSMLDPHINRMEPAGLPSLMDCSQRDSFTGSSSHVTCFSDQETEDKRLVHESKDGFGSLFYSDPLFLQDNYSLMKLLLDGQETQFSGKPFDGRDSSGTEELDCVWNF
# GST-NAP(1-166) = target: T6, GST-NAP(1-166) (UniProt O49255)
# T6 sequence: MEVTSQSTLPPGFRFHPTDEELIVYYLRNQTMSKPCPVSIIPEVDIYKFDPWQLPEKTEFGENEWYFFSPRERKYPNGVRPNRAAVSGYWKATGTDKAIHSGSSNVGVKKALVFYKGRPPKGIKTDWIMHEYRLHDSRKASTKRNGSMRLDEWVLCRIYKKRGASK
# GST-NST2(1-184) = target: T7, GST-NST2(1-184) (UniProt Q9M274)
# T7 sequence: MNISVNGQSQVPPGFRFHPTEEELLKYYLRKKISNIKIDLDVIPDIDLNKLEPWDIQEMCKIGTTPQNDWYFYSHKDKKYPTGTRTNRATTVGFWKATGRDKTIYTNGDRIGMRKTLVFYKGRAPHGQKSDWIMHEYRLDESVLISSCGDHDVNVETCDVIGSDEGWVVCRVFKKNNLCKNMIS
# GST-NTL8 NAC domain = target: T8, GST-NTL8 NAC domain (UniProt Q9XIN7)
# T8 sequence: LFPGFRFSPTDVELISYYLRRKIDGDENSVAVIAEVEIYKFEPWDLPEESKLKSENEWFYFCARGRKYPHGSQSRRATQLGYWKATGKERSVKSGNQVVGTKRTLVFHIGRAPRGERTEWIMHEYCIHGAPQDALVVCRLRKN
# GST-SND1(1-203) = target: T9, GST-SND1(1-203) (UniProt Q9LPI7)
# T9 sequence: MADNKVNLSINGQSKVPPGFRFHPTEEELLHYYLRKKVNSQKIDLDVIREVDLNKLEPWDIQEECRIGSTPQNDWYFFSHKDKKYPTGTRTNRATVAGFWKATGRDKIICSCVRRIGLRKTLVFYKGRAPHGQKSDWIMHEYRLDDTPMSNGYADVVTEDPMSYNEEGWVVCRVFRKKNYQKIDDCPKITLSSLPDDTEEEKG
# GST-VND3 NAC domain = target: T10, GST-VND3 NAC domain (UniProt Q9FH59)
# T10 sequence: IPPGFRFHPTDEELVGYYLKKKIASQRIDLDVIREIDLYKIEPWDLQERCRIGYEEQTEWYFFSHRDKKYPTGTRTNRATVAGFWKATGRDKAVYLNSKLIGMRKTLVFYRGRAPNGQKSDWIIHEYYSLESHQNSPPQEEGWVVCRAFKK
# GST-VND7 NAC domain = target: T11, GST-VND7 NAC domain (UniProt Q9C8W9)
# T11 sequence: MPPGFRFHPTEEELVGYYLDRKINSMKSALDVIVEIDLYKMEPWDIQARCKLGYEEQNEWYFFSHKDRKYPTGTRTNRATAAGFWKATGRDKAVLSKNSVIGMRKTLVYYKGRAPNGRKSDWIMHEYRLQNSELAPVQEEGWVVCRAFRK
# [2] = target: T12, GST-VOZ2 (Arabidopsis thaliana) (UniProt Q9SLB9)
# T12 sequence: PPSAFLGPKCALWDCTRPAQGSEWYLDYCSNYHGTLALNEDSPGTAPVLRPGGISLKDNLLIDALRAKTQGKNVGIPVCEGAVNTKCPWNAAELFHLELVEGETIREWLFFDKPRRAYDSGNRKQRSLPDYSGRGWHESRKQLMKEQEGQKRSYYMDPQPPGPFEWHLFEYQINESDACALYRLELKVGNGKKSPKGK
# GST-WRKY1(266-371) = GST-WRKY1(266-371) (UniProt Q9SI37)
# UniProt Q9SI37, sequence (Q9SI37 266-371): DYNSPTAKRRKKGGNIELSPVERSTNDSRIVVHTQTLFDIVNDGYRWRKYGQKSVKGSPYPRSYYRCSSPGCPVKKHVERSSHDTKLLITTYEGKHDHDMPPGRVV
Sequence,binding signal (GST-ANAC092(1-176)) [E-score],binding signal (GST-NTL6(1-168)) [E-score],binding signal (GST-ANAC019 NAC domain) [E-score],binding signal (GST-ANAC055(1-171)) [E-score],binding signal (GST-ATAF1 NAC domain) [E-score],binding signal [1] [E-score],binding signal (GST-NAP(1-166)) [E-score],binding signal (GST-NST2(1-184)) [E-score],binding signal (GST-NTL8 NAC domain) [E-score],binding signal (GST-SND1(1-203)) [E-score],binding signal (GST-VND3 NAC domain) [E-score],binding signal (GST-VND7 NAC domain) [E-score],binding signal [2] [E-score],binding signal (GST-WRKY1(266-371)) [E-score]
ACCAGTCA,-0.00282,-0.0586,-0.127,-0.0788,-0.0635,-0.14,-0.0326,-0.132,-0.136,-0.0731,-0.142,-0.139,-0.0823,
CCTTGACC,-0.0924,-0.0916,-0.0243,-0.139,-0.133,-0.168,-0.112,-0.126,-0.0252,-0.0649,-0.234,-0.177,-0.0874,
CCGGTCAA,-0.0225,-0.0372,0.0195,-0.139,-0.0856,-0.132,-0.0504,-0.0238,0.00981,-0.024,-0.188,-0.032,-0.0138,
CCGAGTCA,-0.2,-0.271,-0.0927,-0.184,-0.132,-0.15,-0.0387,-0.187,-0.00411,-0.119,-0.128,-0.142,-0.116,
AGAGGTCA,-0.0759,-0.044,-0.0933,-0.00514,-0.122,-0.0551,-0.0415,-0.0796,-0.00114,-0.133,-0.108,-0.0424,-0.0742,
CGGTCAGA,-0.151,-0.21,-0.0727,-0.292,-0.248,-0.272,-0.1,-0.201,-0.0759,-0.165,-0.161,-0.105,-0.108,
GCCGTCAA,0.0245,-0.017,0.0494,0.0159,0.00399,-0.11,0.0427,-0.0657,-0.0694,0.0442,-0.0427,-0.0913,0.0354,
AGTCGTCG,-0.113,-0.155,-0.0479,-0.113,-0.16,-0.255,0.119,-0.0379,-0.0601,-0.214,-0.148,-0.0928,-0.197,
GCCGGTCA,-0.158,-0.0767,-0.0666,-0.245,-0.156,-0.163,-0.166,-0.154,-0.143,-0.0859,-0.235,-0.181,-0.0458,
CAACGACC,-0.0132,-0.0299,0.034,-0.0128,-0.13,-0.0486,-0.0508,-0.0123,-0.0472,-0.117,-0.0762,-0.0749,0.00335,
GAAGGTAA,,,,,0.22,0.25,0.0143,,,0.227,0.148,0.141,0.0928,-0.0327
GAGTCAAC,-0.0278,0.0172,0.14,-0.135,-0.0677,-0.174,-0.0642,-0.0781,-0.0617,-0.0459,-0.055,-0.0337,-0.122,
TGACCCAA,-0.0241,-0.0646,-0.0468,0.00716,-0.0114,-0.0457,-0.106,0.0267,0.0199,-0.0655,-0.0217,-0.139,0.0329,
CGGTCTTC,-0.035,-0.0716,-0.0268,-0.206,-0.274,-0.0549,-0.108,-0.131,-0.0917,-0.197,-0.115,-0.0194,-0.245,
CCTCTGAC,-0.0816,-0.122,-0.0563,-0.269,-0.21,-0.0507,-0.103,-0.132,,-0.0348,-0.172,-0.123,-0.162,
GTCAGACA,-0.0424,-0.138,-0.0509,-0.0161,0.00933,-0.0124,0.0483,-0.119,-0.13,-0.148,-0.0218,-0.137,-0.189,
GTCTTTGA,-0.012,-0.0485,0.00829,-0.0616,-0.0642,-0.0116,-0.00479,0.0282,-0.0197,-0.0811,-0.0713,0.00671,-0.16,
CACGGTCA,-0.0686,-0.158,0.052,-0.0664,-0.0753,-0.038,-0.0198,-0.155,,0.00966,-0.059,0.00138,-0.141,
GACGGTCA,-0.126,-0.106,-0.0527,-0.155,-0.15,-0.0381,-0.0433,-0.135,-0.0485,-0.115,-0.144,-0.0787,-0.153,
GCTTGACC,0.0284,-0.052,-0.122,-0.114,-0.154,-0.089,-0.0454,-0.0802,0.02,-0.0411,-0.161,-0.0249,-0.0454,
AGGTTGAC,-0.0083,0.0195,-0.157,-0.0176,0.13,0.00298,-0.14,-0.0524,-0.107,-0.0802,0.0206,-0.101,0.0161,
TGACCTCA,-0.126,-0.0831,-0.0715,-0.132,-0.0737,-0.113,-0.155,-0.155,-0.0665,-0.17,-0.0627,0.000465,-0.136,
AGTCAGCA,-0.0111,-0.046,-0.0913,0.0422,-0.0135,-0.0245,-0.105,-0.0334,0.0149,-0.0724,-0.0898,-0.095,-0.116,
CGATGACC,-0.127,-0.0219,-0.158,-0.125,-0.238,-0.0953,-0.113,-0.167,-0.0881,-0.115,-0.157,-0.0842,-0.0687,
GGGTTGAC,-0.00487,-0.0741,0.0444,-0.185,-0.0694,-0.0267,0.0845,-0.151,-0.0132,0.00434,-0.135,-0.112,0.117,
